Data as given in paper PMC12040169 (PLOS Biology, 2025).
The list shows a part of the results.

System: T1, C. trachomatis L2/434/Bu expressing GFP (CTL2-GFP)
T1 construct: L2/434/Bu GFP intracellular growth in HeLa cells
Parameters: species or system HeLa; C. trachomatis total inclusion area by high-content imaging, normalised to DMSO
Settings: total inclusion area; 28.5 h, 10 µM; inhibitor
Summary of the method: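 Post-fluorescence-read fixation, DNA staining with Hoechst and high-content imaging; GFP inclusion area and number per well, and nuclei counts, used as proxies for bacterial growth and host viability.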

Compound	% of control remaining
O=C(Nc1scc(-c2ccc(-c3ccccc3)cc2)c1C(=O)O)c1ccco1 [CBK266156]	85.828
CCN(CC)C(=O)CN(CCc1ccc(OC)c(OC)c1)C(=O)NCCc1c[nH]c2ccccc12 [CBK158741]	98.354
CCOc1ccc(C(=O)N2CCN(S(=O)(=O)c3ccc(C)cc3C)CC2)cn1 [CBK298313]	36.4697
Cc1oc(C2CC2)cc1C(=O)N1CCC(c2ccncc2)CC1 [CBK283514]	78.0591
CN(CC1CCCN(C(=O)Nc2cccc(Cl)c2)C1)C(=O)OC(C)(C)C (centres unmarked) [CBK305597]	20.6232
CC(NC(=O)C1CCN(CCOc2ccccc2)CC1)c1ccccc1 (centres unmarked) [CBK148610]	96.4332
O=C(NC1CC1)[C@H]1C=CCN1C(=O)c1cccs1 [CBK284324]	86.131
CCn1c(CN2CCOCC2)nnc1SCC(=O)Nc1cc(C)cc(C)c1 [CBK270258]	112.592
Cc1csc(-c2cn3ccnc3c(N3CCN(c4ccccn4)CC3)n2)c1 [CBK066530]	65.5957
COCCNc1nc(-c2ccccc2OC)ccc1C(=O)N1CCN(C)CC1 [CBK105950]	107.864
O=S(=O)(Nc1cc(O[C@@H]2CCNC2)c2occc2c1)c1cc(F)c(Br)cc1F [CBK073943C]	80.0683
Nc1nc(SCc2cccc([N+](=O)[O-])c2)n[nH]1 [CBK268688]	66.2386
O=C(CN1CCN(c2ccccn2)CC1)N1c2ccccc2Sc2ccc(C(F)(F)F)cc21 [CBK268835G]	105.433
CC(=O)N1CCc2c([nH]c3c(C)cccc23)C12CCN(C/C=C\c1ccccc1)C2 (centres unmarked) [CBK040414]	76.4073
CCc1nccn1CCC(=O)NC1CCN(Cc2ccncc2)CC1 [CBK306813]	62.2981
COc1ccc2[nH]c(-c3cncn3CCCC(C)(C)CO)cc2c1 [CBK281778]	84.3915
c1ccc(COC(c2ccccc2)c2nc3ccccc3n2Cc2ccccc2)cc1 (centres unmarked) [CBK267311]	58.6523
COc1ccc2c(c1)C1(CC(=O)N(C)C1=O)C(=O)N2C (centres unmarked) [CBK075146]	80.7322
COc1ccc(-c2noc([C@@H]3Cc4[nH]cnc4CN3C(=O)CCC(=O)O)n2)cc1 [CBK288967]	81.2256
O=C(OCc1ccc(S(=O)(=O)N2CCOCC2)cc1)c1cc(-c2ccccc2)nc2ccccc12 [CBK267411]	101.623
CCc1nc2ccccc2n1CC(=O)N(CCC#N)Cc1cccnc1 [CBK304892]	67.6538
CCOCCNC(=O)c1coc(COc2ccc3sc(C)nc3c2)n1 [CBK306805]	38.8414
O=C(O)CNCc1ccc(-c2ccc(Cl)cc2)o1 [CBK287258]	121.055
Cc1ccc(S(=O)(=O)Nc2cc(Sc3nc(C)cc(C)n3)c(O)c3ccccc23)cc1 [CBK263313]	93.2576
CCN(CC)C(=O)c1ccccc1NS(=O)(=O)c1cc(Br)ccc1OC [CBK045422]	80.9543
COc1cc(OC)cc(C(=O)OCc2ccc(F)cc2)c1 [CBK267996]	104.398
O=C(CN1CCCCC1)Nc1ccc(S(=O)(=O)N2CCOCC2)cc1 [CBK265577]	105.468

Compound	% of control remaining
O=C(O)COc1cccc(NC(=O)c2cc3ccccc3o2)c1 [CBK270071]	90.1752
O=C(O)CCN1CCCC2(CCN(C(=O)c3ccoc3)C2)C1 (centres unmarked) [CBK137139]	94.4576
Cc1ccc(C(=O)NCC(=O)O)cc1S(=O)(=O)N1CCOCC1 [CBK264534]	101.674
Cc1cc2cc(CNCCCN3CCCC3=O)c(=O)[nH]c2cc1C [CBK282296]	90.5519
Cc1ccc(S(=O)(=O)N(CC(=O)O)c2ccc(Cl)cc2)cc1 [CBK263767]	89.359
COc1cnc(/C=C\c2ccccc2)c(NC(=O)c2cc(C)oc2C)n1 [CBK145222]	64.5218
Brc1ccc(-n2cc(-c3ccccc3)c3c(NCc4ccccn4)ncnc32)cc1 [CBK266427]	127.811
COc1cccc(-c2coc3cc4oc(=O)c(CC(=O)O)c(C)c4cc23)c1 [CBK269520]	83.9903
CCOc1ccc(CNc2sc3c(c2C(=O)Nc2ccc(OC)cc2)CCC3)cc1 [CBK294473]	103.339
COc1cc(-c2ccc3c(c2)COC2(CCCNC2)O3)cc(OC)c1OC (centres unmarked) [CBK092299]	67.5675
O=C(O)c1ccccc1C(=O)N1CCN(c2ccc([N+](=O)[O-])cc2)CC1 [CBK287181]	102.167
O=C(Cc1ccccn1)N1CCCc2ccccc21 [CBK200343]	78.419
c1ccc2c(CNCCN3CCOCC3)cccc2c1 [CBK278156C]	77.2824
CCc1cc(Br)ccc1S(=O)(=O)NCc1cccc(F)c1 [CBK045114]	86.0955
O=C(CCc1ccccc1F)NC1CCc2nccn2C1 (centres unmarked) [CBK306124]	62.4429
N#C/C(=C\c1ccc(-c2ccc(C(=O)O)c(O)c2)o1)c1nc2ccccc2[nH]1 [CBK262121]	101.792
COC(=O)c1sc(N2CCCC2)c(S(=O)(=O)C(C)C)c1N [CBK009463]	97.3808
CNc1nc(C(C)(C)C)cs1 [CBK025373]	74.2273
CC(=O)NCCc1nc2cc(NC(=O)c3cccc([N+](=O)[O-])c3)ccc2n1C [CBK268478]	83.9506
C[C@@H](c1ccccc1)n1c(=O)[nH]c2ncc(-c3cccc4ccccc34)nc21 [CBK064710]	93.5787
Cc1c(Cl)ccc2c(C(=O)NCCCn3cc(Br)cn3)cc(-c3ccncc3)nc12 [CBK267731]	104.275
COC(=O)c1ccccc1NC(=O)CNC(=O)c1ccc(Cl)cc1Cl [CBK267860]	81.2221
Cc1c(C(=O)NCCOc2ccc(-c3ccccc3)cc2)sc2nc[nH]c(=O)c12 [CBK285805]	101.316
Cc1ccc(C(=O)Nc2c(C(=O)Nc3cccnc3)cnn2-c2ccccc2)cc1 [CBK263056]	95.8503
COc1cccc(CNc2nccnc2-c2ccccc2F)c1OC [CBK037993]	76.7948
O=C(Nc1ccc(O)cc1)c1ccc2c(c1)C(=O)N(c1cccc(N3C(=O)c4ccc(C(=O)Nc5ccc(O)cc5)cc4C3=O)n1)C2=O [CBK261334]	103.716
O=C(Cc1cn2ccsc2n1)Nc1ccc(N2CCCCC2)cc1 [CBK306185]	71.3591

Compound	% of control remaining
O=S(=O)(NCC(O)Cn1c2ccc(Cl)cc2c2cc(Cl)ccc21)c1ccccc1 (centres unmarked) [CBK262542]	95.0431
Cc1cc(=O)c(O)c(CN2CCC(C(=O)O)CC2)o1 [CBK286843]	82.3837
CCOC(=O)CN1C(c2ccccc2O)Nc2ccc(Br)cc2C1c1ccccc1 (centres unmarked) [CBK263130]	79.9526
O=C(c1cccnc1)N1CCCC(c2cc3ccccc3cn2)C1 (centres unmarked) [CBK285154]	100.292
O=C(O)COc1ccc(NC(=O)Cc2ccc([N+](=O)[O-])cc2)cc1 [CBK268573]	124.279
Cc1cc(C)nc(SCCCn2c(=O)[nH]c3ccccc32)n1 [CBK264485]	93.7137
CCNc1cc(-c2ccco2)ncn1 [CBK090879]	110.382
NS(=O)(=O)c1cnccc1NCCc1ccccc1 [CBK058003]	44.1239
CC(C)Cn1c(SCC(=O)Nc2ccc(OC(F)F)cc2)nc(O)cc1=O [CBK296679]	77.0198
O=C(CC1S/C(=N/N=C/c2cn(Cc3ccccc3)c3ccccc23)NC1=O)Nc1ccccc1 (centres unmarked) [CBK264529]	119.361
CCN(CCC(C)Sc1ccccc1)c1cncc(Oc2ccc(S(C)(=O)=O)cc2)n1 (centres unmarked) [CBK137186T]	86.7003
CSCc1nnc(SCCC(=O)N2CCN(c3ccc(F)cc3)CC2)o1 [CBK240463]	40.2351
O=C(CSc1nc(-c2ccco2)cc(C(F)(F)F)n1)NCc1ccco1 [CBK266091]	50.6364
CCc1cc(CNC(=O)c2cc(C)nc3c(C)cccc23)on1 [CBK281554]	87.6069
O=C1CCCN1CC(=O)N1CCCC(c2cc3ccccc3cn2)C1 (centres unmarked) [CBK285091]	73.7874
Cc1ccc(-c2ncc3c(=O)[nH]c(=O)n(C)c3n2)cc1 [CBK288553]	69.3311
COc1ncc(-c2nccnc2NCc2cccc(OC)c2OC)c(OC)n1 [CBK037506]	112.109
Fc1ccc2nc(NCC3CCCO3)sc2c1 (centres unmarked) [CBK287647]	83.6647
COc1cccc2sc(NC(=O)c3ccc4occc4c3)nc12 [CBK149278]	98.6195
O=C(NC1(c2ccc(Cl)cc2)CC1)C1CCS(=O)(=O)C1 (centres unmarked) [CBK282765]	109.332
Cc1nn(C)cc1-c1cncn1C(CCN(C)C)c1ccccc1 (centres unmarked) [CBK281987]	81.2444
C[S+]([O-])CCNC(=O)c1cc(-c2ccc(F)cc2)no1 (centres unmarked) [CBK283251]	110.243
CCOC(=O)c1ccc(-c2ccc(OC)cc2)cc1 [CBK002658]	71.3077
CN(C)CCN(C)C(=O)Cc1csc(-c2ccccc2F)n1 [CBK282173]	81.0721
CN(C)S(=O)(=O)Nc1ccc(-c2nnn[nH]2)cc1 [CBK156312]	114.362
COc1cc(NC(=O)Cn2cnc3c2c(=O)n(C)c(=O)n3C)c(OC)cc1Cl [CBK133231]	56.7207
